Results reported in PubChem BioAssay AID1671189 (National Center for Advancing Translational Sciences (NCATS), 2021).
Screen size: about 1,100 compounds; about 70 (6%) were called active. Roughly 22% stayed inconclusive and do not appear here. The call rests on the fitted dose curve; in most records, active means well fitted curve in the direction sought with a large enough effect; inconclusive means small, poorly fitted or top-dose-only effect, or another doubt; inactive means no such curve, though single readings can be large or run the other way. The list shows a part of the results.

molecular target: Polyunsaturated fatty acid lipoxygenase ALOX12 (Homo sapiens) (UniProt P18054); assay: Confirmatory qHTS assay for inhibitors of human arachidonate 12S-lipoxygenase (ALOX12): Round 2; settings: purified human 12-LOX, xylenol orange absorbance; at 125 µM (top of the series) unless noted
Sequence of UniProt P18054 (P18054 whole entry, looked up): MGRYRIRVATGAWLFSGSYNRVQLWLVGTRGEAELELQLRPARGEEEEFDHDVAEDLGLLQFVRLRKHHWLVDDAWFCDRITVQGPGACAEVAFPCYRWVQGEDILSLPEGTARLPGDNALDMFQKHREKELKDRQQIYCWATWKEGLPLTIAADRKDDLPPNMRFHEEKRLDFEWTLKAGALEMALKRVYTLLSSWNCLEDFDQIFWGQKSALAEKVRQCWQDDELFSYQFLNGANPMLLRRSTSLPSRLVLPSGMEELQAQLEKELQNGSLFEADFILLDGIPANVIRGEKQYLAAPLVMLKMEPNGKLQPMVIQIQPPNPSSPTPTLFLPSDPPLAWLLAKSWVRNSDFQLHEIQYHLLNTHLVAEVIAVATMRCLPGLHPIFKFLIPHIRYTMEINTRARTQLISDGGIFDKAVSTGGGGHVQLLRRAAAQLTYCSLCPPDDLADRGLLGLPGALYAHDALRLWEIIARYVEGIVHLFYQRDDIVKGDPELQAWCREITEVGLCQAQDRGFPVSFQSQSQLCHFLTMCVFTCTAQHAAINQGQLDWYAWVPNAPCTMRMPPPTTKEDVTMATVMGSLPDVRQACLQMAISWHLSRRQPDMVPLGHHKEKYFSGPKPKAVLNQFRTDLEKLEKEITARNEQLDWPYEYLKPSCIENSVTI
Text: Assay Provider: Theodore R. Holman Ph.D. University of California, Santa Cruz, California Human lipoxygenase 12hLO is a member of the closely related lipoxygenase family of enzymes which catalyze the site-specific oxidation of arachidonic acid to various hormone precursor molecules and as such is a candidate for drug development in a variety of disease areas, such as cancer and inflammation. Inhibition of 12hLO activity was screened by utilizing arachidonic acid as a substrate. The extent of hydroperoxide product formation was measured by a secondary chromogenic reaction in which xylenol orange (XO, Sigma-Aldrich, cat. number 39,818-7) reacts with the ferric ions produced from the reaction between the hydroperoxide and ferrous ions. The Fe (III)-XO complex is characterized with red-shifted absorbance at 560 nm. A purified preparation of human 12hLO was supplied by Dr. Holman laboratory, University of California, Santa Cruz.
PROTOCOL TABLE SEQUENCE No. (e.g., 1, 2, 3, etc.); […] (e.g., Cells, Incubation, Reagent, etc.); VALUE; DESCRIPTION 1; Enzyme; 3 uL; 150 nM 12hLO enzyme solution dispensed in 1536-well Greiner black, clear bottom plates. 2; Compound; 23 nL; compounds and controls were added. 3; Incubate; 15 min; room temperature. 4; Substrate; 1 uL; 40 uM arachidonic acid (final concentration). 5; Incubate; 30 min; room temperature. 6; Reagent; 4 uL; Fe-XO solution was added to each well. 7; Incubation; 30 min; room temperature 8; Detector; absorbance; Read 1 at 405 nm absorbance using ViewLux (PerkinElmer) CCD imager. 9; Detector; absorbance; Read 2 at 573 nm absorbance using ViewLux (PerkinElmer) CCD imager. NOTES (numbers refer to sequence above) 1; 150 nM 12hLO (final concentration) in buffer solution (25 mM Hepes, 0.01% Triton X-100, pH 7.0) was dispensed in columns 1, 2, 5-48. Column 1 is neutral (100% activity). Buffer only was dispensed in columns 3 and 4 as no enzyme negative controls. The plates were covered with metal lids with gas-exchange holes. 2; Compounds were pin transferred via a Kalypsys Pin Tool (Wako USA) in column 5 - 48. Control compound was transferred in column 2, titration of nordihydroguaiaretic acid (NDGA, Sigma-Aldrich, N5023) with top concentration of 20 mM in DMSO then 1:3 dilution in duplicate. Dilution factor of 23 nL into 4 uL final assay volume. 3; Covered assay plates were incubated for 15 min at room temperature. 4; Substrate was added to start the reaction; 40 uM arachidonic acid (Sigma-Aldrich, St. Louis, MO) was dispensed throughout the plate. 6; Chromogenic detection reagent solution (divalent iron/xylenol orange, Fe-XO) was added to each well: 200 uM xylenol orange, 300 uM ferrous ammonium sulfate prepared freshly in 50 mM sulfuric acid. 8, 9; Two absorbance readouts were obtained at 405 nm and at 573 nm using a ViewLux high-throughput CCD plate imager (PerkinElmer). The 573 to 405 (Read 2 / Read 1) absorbance ratio was used to compute reaction progress.
On the % scale 0 is the no-effect control and ±100 the full control effect.

| SMILES | activity change, negative = inhibition |
| --- | --- |
| N#Cc1ccc(CN2CCC3(CC2)C(=O)Nc2ccccc23)cc1 | inactive: -27.2% |
| COc1ccc(C(CN)N2CCCC2)cc1 (stereo not given) | inactive: 11.8% [at 233 µM] |
| O=C1Nc2ccccc2C12CCN(Cc1ccc(C(F)(F)F)cc1)CC2 | inactive: -41.1% |
| O=C(O)C1=NOC2CN(Cc3cccc(Br)n3)CC12 (stereo not given) | inactive: -4.21% |
| CN(C)[C@@H]1C(=O)C(C(N)=O)=C(O)[C@@]2(O)C(=O)C3=C(O)c4c(O)cccc4[C@@](C)(O)[C@H]3C[C@@H]12 | inactive: -4.18% |
| O=C1NC2(Cc3ccccc31)CN(CC1CC1)C2 | inactive: -11.7% [at 233 µM] |
| CC1CN2CCCCC2CN1 (stereo not given) | inactive: -6.4% [at 343 µM] |
| CC1(C)C(C(=O)N2CCC3(CC2)Nc2ccccc2NC3=O)C1(C)C | inactive: -10.7% [at 64.5 µM] |
| Cc1o[nH]c(=O)c1C[C@H](N)C(=O)O | inactive: 5.45% |
| O=C(Nc1ccc2n(c1=O)C[C@H]1C[C@@H]2CN(Cc2ccc(F)cc2)C1)c1cccs1 | inactive: -9.31% [at 64.5 µM] |
| Cc1nc(-c2ccccc2Br)cc([C@H]2CN3CC[C@H]2C[C@@H]3CNC(=O)c2ccccc2)n1 | inactive: 2.4% [at 64.5 µM] |
| CCOc1cncc(/C=C/CCNC)c1 | inactive: -4.88% |
| Clc1ccc(N2CCN(CC3[C@H]4CNC[C@@H]34)CC2)nc1 (stereo not given in full) | inactive: -1.21% [at 64.5 µM] |
| COc1ccc(CC(=O)N2Cc3ccccc3CC3(CCCCN3C)C2)cc1 (stereo not given) | inactive: -22.4% |
| c1cnc2nc(C3CCNCC3)[nH]c2c1 | inactive: -3.26% [at 233 µM] |
| O=C1Nc2ccccc2CN(Cc2ccncc2)C12CCNCC2 | inactive: -15.2% |
| CN[C@@H](Cc1c[nH]c2ccccc12)C(=O)O | inactive: -2.52% |
| CNC(C)c1ccc(Cl)cc1 (stereo not given) | inactive: -21.6% [at 233 µM] |
| CC(C)C1CN2CCCC2CN1 (stereo not given) | inactive: -4.43% [at 233 µM] |
| O=C(Cc1ccc(Cl)cc1)N1Cc2ccccc2CC2(CCCN2CC2CCNC2)C1 (stereo not given) | inactive: -22.4% |
| O=[S+]1([O-])NC2(CCN(CC3CCOCC3)C2)COc2ccncc21 (stereo not given) | inactive: 0.957% |
| Cc1ccc(C(=O)N2[C@H]3CC[C@@H]2c2cnc(-c4ccc(F)cc4)nc2C3)cn1 | inactive: 3.41% [at 64.5 µM] |
| CNC1CCc2ccccc21 (stereo not given) | inactive: -16.9% [at 233 µM] |
| CCCCC1CN2CCCC2CN1 (stereo not given) | inactive: -7.61% [at 233 µM] |
| O=C(O)C1=NOC2CN(Cc3ccccc3)CC12 (stereo not given) | inactive: -24.7% [at 233 µM] |
| CN(C)c1ccc(CN2CCC3(CC2)C(=O)Nc2ccccc23)cc1 | inactive: -23.9% |
| CCN1C[C@]2(COC(=O)c3ccccc3N3C(=O)CC(C)C3=O)CC[C@H](OC)[C@@]34C5C[C@@H]6[C@@H](OC)C[C@@](O)(C5[C@H]6OC)[C@](O)([C@@H](OC)C23)[C@@H]14 (stereo not given in full) | inactive: 3.67% |
| c1ccc(CC2CN3CCCC3CN2)cc1 (stereo not given) | inactive: 9.21% [at 233 µM] |
| O=C1Nc2ccccc2C12CCN(CC1CCCCC1)CC2 | inactive: -24.2% |
| c1cc2nc(C3CCNCC3)[nH]c2cn1 | inactive: -16.3% [at 233 µM] |
